Measurements as given in patent publication US20190315854A1 (BEIJING VDJBIO, published 2019).
Substitutions are numbered along the chain they refer to.

T1: IL-6 receptor on DS-1 cells (ATCC CRL 11102) (UniProt P08887 20-468, limits assumed)
T1 sequence (looked up): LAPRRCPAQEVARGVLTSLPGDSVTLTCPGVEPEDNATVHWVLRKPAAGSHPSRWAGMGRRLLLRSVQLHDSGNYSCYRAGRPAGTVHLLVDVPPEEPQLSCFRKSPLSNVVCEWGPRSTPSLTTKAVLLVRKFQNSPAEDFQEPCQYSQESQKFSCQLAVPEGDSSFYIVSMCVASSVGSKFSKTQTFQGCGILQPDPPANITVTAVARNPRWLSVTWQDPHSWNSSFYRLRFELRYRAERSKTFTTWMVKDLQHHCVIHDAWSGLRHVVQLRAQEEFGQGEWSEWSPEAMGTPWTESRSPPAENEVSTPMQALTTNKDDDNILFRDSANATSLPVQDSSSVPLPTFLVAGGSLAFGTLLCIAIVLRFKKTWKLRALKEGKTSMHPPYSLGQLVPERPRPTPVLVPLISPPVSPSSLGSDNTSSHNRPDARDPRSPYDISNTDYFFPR

T2: sIL-6R (soluble IL-6 receptor; SBH Sciences) (human, UniProt P08887 20-365)
T2 construct: also called human IL-6R
T2 sequence: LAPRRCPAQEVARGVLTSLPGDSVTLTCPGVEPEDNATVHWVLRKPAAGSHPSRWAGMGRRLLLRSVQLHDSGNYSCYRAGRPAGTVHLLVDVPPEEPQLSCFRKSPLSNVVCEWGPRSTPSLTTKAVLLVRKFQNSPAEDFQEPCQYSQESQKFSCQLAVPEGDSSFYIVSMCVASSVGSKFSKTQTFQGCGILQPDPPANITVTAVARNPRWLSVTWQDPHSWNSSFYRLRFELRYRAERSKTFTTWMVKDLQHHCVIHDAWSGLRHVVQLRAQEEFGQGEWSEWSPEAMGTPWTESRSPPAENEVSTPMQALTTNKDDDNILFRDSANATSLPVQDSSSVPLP

B1: 57# (antibody, human IgG1, kappa)
heavy: QVQLQESGPGLVRPSQTLSLTCTVSGYSITSDHAWSWVRQPPGRGLEWIGFISYSGMITYNPSLKSRVTMLRDTSKNQFSLRLSSVTAADTAVYYCARCLARITAMDYWGQGSLVTVSS[letters of human IgG1 constant region not shown]
light: DIQMTQSPSSLSASVGDRVTITCRASQDISSYLNWYQQKPGKAPKLLIYYTSRLHSGVPSRFSGSGSGTDFTFTISSLQPEDIATYYCQQGNTLPYTFGQGTKVEIKRTVAAPSVFIFPPSDEQLKSGTASVVCLLNNFYPREAKVQWKVDNALQSGNSQESVTEQDSKDSTYSLSSTLTLSKADYEKHKVYACEVTHQGLSSPVTKSFNRGEC
notes: also called Sample # 57
B2: 58# (antibody, human IgG1, kappa)
heavy: B1 heavy with I58T
light: B1 light
notes: also called Sample # 58
B3: 1# (antibody, human IgG1, kappa)
heavy: B1 heavy with F51Y, M57I, I58T, C99S
light: B1 light
notes: also called Sample # 1
B4: 6# (antibody, human IgG1, kappa)
heavy: QVQLQESGPGLVRPSQTLSLTCTVSGYSITSDHAWSWVRQPPGRGLEWIGYISYSGITTYNPSLKSRVTMLRDTSKNQFSLRLSSVTAADTAVYYCARSLARITAMDYWGQGSLVTVSA[letters of about 350 residues with a human IgG1 Fc not shown]
light: B1 light
notes: also called Sample # 6
B5: 29# (antibody, human IgG1, kappa)
heavy: B1 heavy with I58T
light: B1 light
notes: also called Sample # 29
B6: 61# (antibody, human IgG1, kappa)
heavy: B1 heavy with T116I
light: B1 light
notes: also called Sample # 61
B7: 54# (antibody, human IgG1, kappa)
heavy: B1 heavy with I58T, T116I
light: B1 light
notes: also called Sample # 54

molecular target: T1, IL-6 receptor on DS-1 cells (ATCC CRL …); assay: cell-based or functional assay

IC50 (µg/ml), inhibition of DS-1 cell proliferation, MTS assay, IL6 2 ng/mL [µg/mL] | Binder
0.0638 | B1
0.0697 | B2

molecular target: T2, sIL-6R (soluble IL-6 receptor; SBH …); assay: SPR (BIAcore 3000), antibody on chip, sIL-6R analyte, 25 C
Method: (§1) All SPR measurements were performed on a BIAcore 3000 instrument (GE Biosciences, Piscataway, N.J.). BIAcore Software-BIAcore 3000 Control Software V3.2 was used for the operation and control of the BIAcore 3000 instrument. BiaEvaluation Software V4.1 was used for the analysis of SPR data from the BIAcore 3000 instrument and data was plotted using Graph Pad Prism Software Version 5. […] The indicated antibodies were used as the ligand for the construction of the reference channel of the chip. […] Each sample was injected for 3 min at a flow rate of 30 μL/min to allow for binding to chip-bound antibody. Next, binding buffer without analyte was sent over the chip at the same flow rate to allow for dissociation of bound analyte. After 500s, remaining bound analyte was removed by injecting regeneration solution (1M Formic acid). Data was analyzed by using the Kinetics Wizard and the manual fitting programs that are both included with the BiaEvaluation Software V4.1.

Kd [nM] | Relative Affinity | koff [s⁻¹] | kon [M⁻¹ s⁻¹] | Binder
0.413 | 3.2 fold vs 25 (Tocilizumab) | 0.000101 | 244000 | B3
0.267 | 5 fold vs 25 (Tocilizumab) | 6.22e-05 | 233000 | B4
0.0957 | 14 fold vs 25 (Tocilizumab) | 3.99e-05 | 417000 | B5

molecular target: T2, sIL-6R (soluble IL-6 receptor; SBH …); assay: as above; remark: another data set of the same source
Method: as §1

Kd [nM] | Relative Affinity | koff [s⁻¹] | kon [M⁻¹ s⁻¹] | Binder
0.295 | 5.8 fold vs 25 (Tocilizumab) | 6.76e-05 | 229000 | B3
0.0544 | 52.4 fold vs 25 (Tocilizumab) | 1.29e-05 | 238000 | B6
0.0984 | 29 fold vs 25 (Tocilizumab) | 2.41e-05 | 245000 | B1
0.103 | 27.7 fold vs 25 (Tocilizumab) | 2.67e-05 | 258000 | B2
0.37 | 4.6 fold vs 25 (Tocilizumab) | 8.1e-05 | 219000 | B4
0.122 | 14 fold vs 25 (Tocilizumab) | 5.37e-05 | 440000 | B5
0.0697 | 45.3 fold vs 25 (Tocilizumab) | 1.39e-05 | 199000 | B7
